No constants are given. Whether binding was seen depends on the method and setting. For part of these data: In cells and extracts the contact can be indirect. Some binding calls cover weakened binding; strength is not graded here. Where a sequence is shown, tags or fusion partners need not be part of it.
Tests used:
[1] = target: T1, ORRM2 fused to the N-terminal half of GFP (Arabidopsis) (UniProt Q9FIU6); test: split reporter; BiFC in Nicotiana benthamiana: transient coexpression of one protein fused to GFP^N with another fused to GFP^C by Agrobacterium infiltration; confocal imaging; ORRM5-GFP^C in all panels
T1 sequence: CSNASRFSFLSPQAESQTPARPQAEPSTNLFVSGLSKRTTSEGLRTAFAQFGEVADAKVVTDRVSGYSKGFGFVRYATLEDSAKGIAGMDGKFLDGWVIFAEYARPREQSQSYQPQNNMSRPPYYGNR

[2] = target: T2, ORRM3 fused to the N-terminal half of GFP (Arabidopsis) (UniProt Q9FNR1); test: as above
T2 sequence: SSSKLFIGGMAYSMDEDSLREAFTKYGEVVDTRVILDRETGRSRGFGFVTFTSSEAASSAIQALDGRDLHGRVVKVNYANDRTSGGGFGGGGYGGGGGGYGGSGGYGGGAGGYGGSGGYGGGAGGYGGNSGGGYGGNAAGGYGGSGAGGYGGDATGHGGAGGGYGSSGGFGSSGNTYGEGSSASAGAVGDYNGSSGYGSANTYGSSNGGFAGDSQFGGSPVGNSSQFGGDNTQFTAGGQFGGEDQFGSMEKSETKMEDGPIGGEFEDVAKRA

[3] = target: T3, ORRM4 fused to the N-terminal half of GFP (Arabidopsis) (UniProt Q9C909); test: as above
T3 sequence: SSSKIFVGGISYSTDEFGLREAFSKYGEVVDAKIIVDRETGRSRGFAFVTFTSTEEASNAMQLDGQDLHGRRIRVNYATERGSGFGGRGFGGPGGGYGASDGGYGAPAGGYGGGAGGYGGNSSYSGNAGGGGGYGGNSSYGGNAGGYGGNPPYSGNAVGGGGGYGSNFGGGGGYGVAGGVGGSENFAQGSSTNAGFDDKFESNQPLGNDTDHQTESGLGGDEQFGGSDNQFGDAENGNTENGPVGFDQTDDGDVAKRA

[4] = target: T4, RIP1 (RNA-editing factor Interacting Protein 1) fused to the N-terminal half of GFP (Arabidopsis) (UniProt Q9LKA5); test: as above
T4 sequence: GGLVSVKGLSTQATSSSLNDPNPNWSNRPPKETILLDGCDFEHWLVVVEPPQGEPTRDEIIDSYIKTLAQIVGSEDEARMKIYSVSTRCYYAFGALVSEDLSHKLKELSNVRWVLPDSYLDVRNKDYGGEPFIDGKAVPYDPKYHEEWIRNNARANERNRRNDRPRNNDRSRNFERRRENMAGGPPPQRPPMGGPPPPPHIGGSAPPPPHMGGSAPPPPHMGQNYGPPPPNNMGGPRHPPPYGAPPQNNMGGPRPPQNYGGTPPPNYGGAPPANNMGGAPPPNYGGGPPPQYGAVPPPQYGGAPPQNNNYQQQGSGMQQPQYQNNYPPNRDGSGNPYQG

[5] = target: organelle RNA recognition motif-containing protein 5 (ORRM5) fused to the C-terminal half of GFP (Arabidopsis) (UniProt Q9SVM8); test: as above
[6] = target: T5, ORRM3, predicted mature coding sequence, fused to the AD or BD domain (Arabidopsis) (UniProt Q9FNR1); test: two-hybrid; yeast PJ69-4 a and alpha mated; AD and BD fusions of predicted mature proteins; 10 ul of 1 x 10^6 and 1 x 10^5 cells ml^-1 spotted on leucine-, tryptophan-, adenine- and histidine-dropout plates; read 2 d to 5 d after spotting; empty vectors as controls for auto-activation
T5 sequence: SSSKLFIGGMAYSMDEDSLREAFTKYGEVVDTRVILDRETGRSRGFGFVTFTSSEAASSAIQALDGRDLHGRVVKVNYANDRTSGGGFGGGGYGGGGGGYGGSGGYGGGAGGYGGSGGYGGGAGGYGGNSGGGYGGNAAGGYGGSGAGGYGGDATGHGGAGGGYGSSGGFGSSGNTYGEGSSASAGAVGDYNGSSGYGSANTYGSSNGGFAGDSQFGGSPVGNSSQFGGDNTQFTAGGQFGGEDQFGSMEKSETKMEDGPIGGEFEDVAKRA

[7] = target: T6, ORRM4, predicted mature coding sequence, fused to the AD or BD domain (Arabidopsis) (UniProt Q9C909); test: as above
T6 sequence: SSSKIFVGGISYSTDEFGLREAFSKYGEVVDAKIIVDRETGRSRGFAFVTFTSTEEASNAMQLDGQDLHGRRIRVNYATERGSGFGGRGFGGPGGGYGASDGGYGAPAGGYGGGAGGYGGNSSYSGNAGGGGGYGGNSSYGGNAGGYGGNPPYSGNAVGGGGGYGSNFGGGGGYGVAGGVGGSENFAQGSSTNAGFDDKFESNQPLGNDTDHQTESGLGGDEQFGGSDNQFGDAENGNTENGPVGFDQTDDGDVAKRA

[8] = target: ORRM5 with its predicted transit peptide removed, fused to the AD or BD domain (Arabidopsis) (UniProt Q9SVM8); test: as above
[9] = target: T7, RIP1, predicted mature coding sequence, fused to the AD or BD domain (Arabidopsis) (UniProt Q9LKA5); test: as above
T7 sequence: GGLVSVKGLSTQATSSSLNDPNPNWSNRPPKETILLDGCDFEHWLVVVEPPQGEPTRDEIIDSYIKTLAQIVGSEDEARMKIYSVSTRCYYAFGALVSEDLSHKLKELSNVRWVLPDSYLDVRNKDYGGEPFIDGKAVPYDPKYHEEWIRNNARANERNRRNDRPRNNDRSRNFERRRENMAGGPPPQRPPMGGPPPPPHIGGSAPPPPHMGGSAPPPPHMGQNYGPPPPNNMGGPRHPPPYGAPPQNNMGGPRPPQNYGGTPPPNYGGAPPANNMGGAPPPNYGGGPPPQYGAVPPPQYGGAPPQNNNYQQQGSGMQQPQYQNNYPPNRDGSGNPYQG

B1: organelle RNA recognition motif-containing protein 5 (ORRM5) fused to the C-terminal half of GFP (protein, UniProt Q9SVM8 35-158)
chain: TKLFIGGLSWGTDDASLRDAFAHFGDVVDAKVIVDRETGRSRGFGFVNFNDEGAATAAISEMDGKELNGRHIRVNPANDRPSAPRAYGGGGGYSGGGGGYGGGGGGYGGGGGGYGGGGDGGGGF
Which binding [1] does the source give for B1 here?
Its binding is “binds”.

And the binding [2]?
The binding was “binds”.

And the binding [3]?
The binding was “binds”.

And the binding [4]?
The binding was “no binding”.

What about the binding [5] of the same binder?
The binding was “no binding”.

B2: ORRM5 with its predicted transit peptide removed, fused to the AD or BD domain (protein, UniProt Q9SVM8 33-158)
chain: MSTKLFIGGLSWGTDDASLRDAFAHFGDVVDAKVIVDRETGRSRGFGFVNFNDEGAATAAISEMDGKELNGRHIRVNPANDRPSAPRAYGGGGGYSGGGGGYGGGGGGYGGGGGGYGGGGDGGGGF
Which results are given for B2?
binding [6]: binds; binding [7]: binds; binding [8]: no binding; binding [9]: no binding

Source: publication PMC5853588
